# Test results reported in paper PMC10726135.
# This is one part of the list. At the low end of the ranking the order means little. The protein was read in a cell extract, so binding may be indirect.
# Biological target: T1, HNF4alpha2 (COS-7 nuclear extract) (UniProt P41235)
# T1 sequence: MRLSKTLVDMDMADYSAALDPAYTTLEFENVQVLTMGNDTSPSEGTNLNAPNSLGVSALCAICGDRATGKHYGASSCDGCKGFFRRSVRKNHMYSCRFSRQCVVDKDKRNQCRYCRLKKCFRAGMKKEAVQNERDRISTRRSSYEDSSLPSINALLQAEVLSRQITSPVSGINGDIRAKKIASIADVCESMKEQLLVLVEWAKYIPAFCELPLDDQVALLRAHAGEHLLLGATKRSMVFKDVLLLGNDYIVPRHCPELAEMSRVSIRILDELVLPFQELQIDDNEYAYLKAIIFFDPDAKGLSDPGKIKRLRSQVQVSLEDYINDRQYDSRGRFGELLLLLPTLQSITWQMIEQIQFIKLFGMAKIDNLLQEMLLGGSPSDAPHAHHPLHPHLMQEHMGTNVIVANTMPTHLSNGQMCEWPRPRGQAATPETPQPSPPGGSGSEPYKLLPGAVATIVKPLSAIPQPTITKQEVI
# Test: protein-binding microarray
# Details: COS-7 nuclear extract on double-stranded Agilent 4x180k PBM; binding buffer, salt, pH and temperature not given; high values mean tight binding; double strand, one strand shown; sequences stand for … in …GCCTAGGGAGATTAGAGTATCGGTCGA
row,Sequence,binding signal (log2 normalized intensity)
1,TACCTAGGAATGCTATCTAGCATGACAAGA,-1.03
2,ACTTCCTTCAAACCTGGGAAAACTTACGCA,-1.21
3,AATGGAGAGGATTTTGGAATGTCGCATAGC,0.274
4,TTGAATAGCATTTTGCAGAGACGGCAAGCC,-1.13
5,ATGCCAAAGAAGCAAAGGTTGGCTAAAGAT,0.0763
6,AAACATTCCTCCCTCCCTCTTCCCTCATAT,2.94
7,CCCTGACCAAGGGTCATGCTGGTCTCCTTG,2.07
8,ACTTTGCCCCCAAGAAAAGGTTCCTATGTA,1.48
9,GGTTGCTGTTATCTTCATTTATAGATAAGC,0.336
10,ACATCTCCCACTGTGGACTCTGAGCCTCCT,3.78
11,AGCATCGCTGGACTCTGCTCCTAAGGCAGG,2.19
12,AGGGAATCCTGCATTATCAGGCAAGGGTGG,-1.05
13,CTTGCCAAGCCTAGTTTTGATTATCACTAC,-0.838
14,ACAGGCTCAGCAAAGTCAGGTCAGTAGCCC,-1.23
15,ATGTTAGGCTGGAAAACTGGGCTGTTATTT,0.775
16,AGGAATTCAACCAATGTGGAGCTGCTGAAC,-1.19
17,CTTCGAGCCTGTGGTTTCTCTTTGTATACA,1.32
18,TACTGTACTTTGCTCTCAGCACACTCTGGT,1.68
19,GCTTATCGTCCCTTCCCTCTGTCTTCAAAA,1.61
20,TTGGGGCTAATGTCTCTCTGGCCGGAGGGG,0.0294
21,ATAAACTGGAAAGGGCTTCAGAGTCGATAG,-1.08
22,AGGGGGCCTCCTGCCCCAGGAGCAGGATAG,-1.15
23,TGTGATTTGAAATTTGTCCTGGTCACACCA,1.53
24,TTACAAAGTGGTTGTAGCAGTTCACACTCC,-0.796

row,Sequence,binding signal (log2 normalized intensity)
1,GGAGCTGCCGCAACATTGTCCAGCAGACAC,-1.14
2,TTAACTGGACAAGGAGGCTGGGCTGCATAG,-1.06
3,ATCTCAGCTCACTGTAACCTTTGCCCCCCT,8.75
4,TCCTAAACCCCACAGAACAAACAGTACATT,1.22
5,GCGCCGGGGAAGCTGTTGGGCGCCGGAACT,-1.23
6,TCCAGTTGTATCGCCTCCACCTGCACCATT,-0.718
7,TGTGCTCCTGTAGAATGACCCCCTGGGCTC,4.3
8,AAACAAAATGCATTTCCTTATTCTTAACAA,-1.14
9,TGTTTATCAGAGCAAAGTTCAATTTCCAAC,3.49
10,AGGAATGCAGCCCTGCCACTCTTTTTTAGA,-1.04
11,AGGCAAACTTTATCAAGACTGCAGCCAGGG,-1.1
12,AGTAGGGCGTCTCTTAGTATTACCATGTCC,0.926
13,ACTTGGACCAGCTTTTGGAAGGACTTCGAA,1.06
14,CAGGGCTAAAGTCAGGGGCAGGTGGAGGTG,-0.182
15,TCCACTGCATCAGTGCTGACCTACCTGACC,1.87
16,TATAAAAGGCTGTCACACTGGCCTTTGCCC,5.09
17,AACTAGCAACTTGGACCTTGATAGGAGTTA,2.88
18,TCATTCCTAGCCCCACCAAACTGACAGGTT,3.21
19,ATGAGACATTGTGTCAATTCCAAAGTTCAA,4.43
20,GTGAAACATCCCACTCAAAGGTCAGGGCTA,0.969
21,TCCAGCTGCCAGGGAGACAAAGTGTCACAA,-1
22,TGCCGACCTCCTGACTAAAGTTCATTGCTT,2.03
23,GATTGACCTGACCCAGGCGAGGGTTGCTGC,-0.89
24,ATAGTGACCACCTGGTGGACCCAGCTGGTA,2.36

row,Sequence,binding signal (log2 normalized intensity)
1,ATAAACACAATTCTTTGGTACTTTGAGCCA,2.41
2,TTGGATCCAGCTCCTGATGTTTGGTCTTAT,1.11
3,CTCCTCTCTGTAGTCCTCAGCAATAACTTA,1.25
4,GTCTTAGTGCATTCCTTCCCAAGTGCTAGC,0.469
5,CCTTAGGATGTGGGGTATCAGGTGGTGATG,1.86
6,CCTTTATCGAACCTATTGTTTAATCTTTGA,2.41
7,CTATCTGCCTGCAGGAGAGAGCAAAGTCCA,7.16
8,AGGGGAGGGTGACCAGATTAATTACCCACA,-1.09
9,GGGCCTCAAGGGAATCTGCTGTAATAAAGC,-1.17
10,GGGACTTTGCCCTTTTTAATGTTTCATTAA,3.92
11,GAGATGAGGCTCAGACCTGACCTTTGGATT,7.99
12,TAGTAGGGTCAAAGTCTGGATCCGTTAACA,4.3
13,GCGAACCATTTCCCATGGGACTGGCAAAGC,-1.1
14,GATCTGAGATGCTGGGTGGCATAGTTGATG,1.07
15,TCTTCACCAAATCATTTCACTTCCTTTGTT,0.193
16,CAATGCTGGAGGGACTGTGATGAAGGCAGA,-0.984
17,TGCTGGAGAAAGAGGGGAAGGATGAATTTA,-1.13
18,TCAATAAATCACACGAAACAAGTAGCAGTT,-1.03
19,AATTGAGATGAGATGGTCAAAGGTTGATGG,3.56
20,GTTATCTGATCAAATTCCACACCCCCCACT,5.45
21,CAGGGTCAATGTCCCCTTAGGAATAGTATC,2.14
22,GGACAGCCTTTTTCAAGCAATGTTTGCCTC,-1.11
23,GCCTCCCGGAGAGGCCCCGCCCCGTCCCCG,6.14
24,AGCAGGCACCCCGGGAGCGCCGAGCACGTC,-1.21

row,Sequence,binding signal (log2 normalized intensity)
1,AACTTTGGACTTTTATGTTAAGATCAAACA,1.97
2,AGTCACTATCACCTCTCCCACCTGAATTAT,2.73
3,CATTATAAGTTGTCCTAGGAAGCAACAGAC,0.752
4,ACAGCTAGCAGGTGACAAATCCAGGATCAA,-1.01
5,TGTAATAAGGAGTTGTGTGATAAGGAGGGC,0.534
6,GGGGGGACGCGCTTGGGCGACGGACGCGCC,-1.11
7,ACAATTCTTCCTTCATCTGGAGACAAATGC,1.11
8,CTGCAGCGCCACATTCTGAGCCAGCACTTC,-1.1
9,TAACTTACAGTGCACTTTGACCGCTCATTT,5.83
10,GCCAAGGAAGCGATGGGCTGGCCCTGAGCC,-1.1
11,AGGAAACAAGGGTACCAACAGGTCCAAGGT,-0.365
12,TGCAATTTGTTCTTTCTCCAACTGCTCCTC,0.946
13,AATTCTCATGGAGGACTTTGGCCTTTTGTG,5.77
14,CCTAAACAGTTACCGAGAGGTAACTCCCCC,2.86
15,ACACATGCCCCTTCCCTCCCTGCAATGGCC,4.02
16,TCCTCTTCAACTGATTCTTGCTTCGCTCTC,-0.909
17,TTAAATCCTATCCTAGGGTTAAAGTCTACA,4.31
18,CCACCAGCTGCTTCGGCCAGCACAGGAGGC,-1.23
19,CTTAGACAACACACCACCTGCTACTCCCTT,-1.14
20,GAACCGTTAGCAACCGGAAGTGGCTAGAGG,-1.27
21,AGGTCAAGCAATGCTGGGGACCTTTGGCCT,6
